In ChEMBL document CHEMBL4888484, “Replenishing the malaria drug discovery pipeline: Screening and hit evaluation of the MMV Hit Generation Library 1 (HGL1) against asexual blood stage Plasmodium falciparum ,using a nano luciferase reporter read-out” (2022):
Out of some 150,000 compounds screened, about 540 (0.36%) showed an effect of 50% or more. This is one part of the list.

Tested on: Plasmodium falciparum
Test: Primary screen in NF54 nanoGlo assay, in single point, at 2uM, 72h; a lower Z score goes with more inhibition
Format: functional, Erythrocyte
Settings: timepoint 72 hour

First: CN1CCCOc2cccc(c2)[C@@H]2N(C(=O)CCn3cncn3)CC[C@]23C(=O)N(CC1=O)c1ccccc13
Second: COc1ccc(CN2CCc3c(c(=O)n4ncc(C(=O)N5CCOCC5)c4n3C)C2)cc1
The “% Inhibition” value of the first is lower: -17% for the first, -15% for the second.

Compared with `CCn1c(C2CCN(C(=O)Nc3ccccc3Cl)CC2)nn(CCOC)c1=O`, `Cc1ccc(F)cc1NC(=O)Cn1nc(N2CCC(C)CC2)c2ccccc2c1=O` is lower in “% Inhibition” value: 14% for the first, 2% for the second.

Compared with `CCCc1cnc(NCCn2cnc(C)c2C)nc1`, `CCOc1ncccc1CNC(=O)c1scnc1C` is higher in “% Inhibition” value: -10% for the first, -7% for the second.

Going from `NC(=O)CN1CCN(Cc2nc(-c3cccs3)no2)CC1` to `C/C=C\Cn1c(C(=O)N2CCN(Cc3ccccc3)CC2)cc2c(OCC)cccc21`, the “% Inhibition” value rises from -16% to -6%.

Going from `COc1cccc2c(=O)n([C@H]3CCCC[C@@H]3O)cnc12` to `O=C(NCCc1ccccc1F)c1cn(C2CCCCC2)nn1`, the “% Inhibition” value falls from 6% to -3%.

First: Cc1nc(NCCc2ccccc2F)cc([C@H]2C[C@@H](N)C2)n1
Second: CCn1nccc1-c1nc(C)cc(C2CCC2)n1
The “% Inhibition” value of the first is higher: 3% for the first, -4% for the second.

First: CN(CC1CCCCC1)C(=O)COc1ccc(C#N)c(F)c1
Second: CN(C(=O)C[C@H]1CCCOC1)c1ccc(Br)cc1Cl
The “% Inhibition” value of the first is lower: -19% for the first, 2% for the second.

First: C[C@]1(CO)CCCN(c2nc(-c3ccccc3)nc3c2CCNCC3)C1
Second: O=C1NCCN2CCN(Cc3cnc4c(-c5ccccc5)cnn4c3)C[C@@H]12
The “% Inhibition” value of the first is lower: -11% for the first, -5% for the second.

First: CCCN(CCC)Cc1ccc(C(=O)N2CC=CC2)cc1
Second: CCCCCOCC(=O)N1CC[C@H](c2ccc3cccnc3n2)C1
The “% Inhibition” value of the first is higher: 4% for the first, 0% for the second.

First: O=c1[nH]nc(-c2ccccc2)cc1Cc1ccc2c(c1)OCO2
Second: O=C(Nc1ccc2c(c1)OCO2)C1CCN(C(=O)C2c3ccccc3Oc3ccccc32)CC1
The “% Inhibition” value of the first is lower: -16% for the first, -6% for the second.

Compared with `O=C(NC1CCCc2c(O)cccc21)C1COCCN1CC(F)F` (centres undefined), `O=C(NC1(C(=O)O)CCC1)c1ccc(CN2CCc3ccccc3C2)o1` is higher in “% Inhibition” value: -13% for the first, -10% for the second.

Compared with `O=C(c1nnn2c1c(=O)[nH]c1cc(F)ccc12)N1CCN(c2ccc(F)cc2)CC1`, `O=C(NCc1ccc(F)c(Cl)c1)C1CCN(c2cnc3nccnc3c2)CC1` is higher in “% Inhibition” value: 7% for the first, 9% for the second.

Compared with `CCc1nn(C)cc1CNC(=O)[C@@](O)(CC)c1cccc(Cl)c1`, `O=C(O)[C@H]1CCN(C(=O)NCCOCc2ccc(Cl)cc2Cl)C1` is lower in “% Inhibition” value: -10% for the first, -17% for the second.

Going from `O=C(c1ccccc1)c1ccc2n1CC[C@H]2C(=O)N1CCC(N2CCCCC2)CC1` to `O=C(Cn1cc(-c2ccccc2)ncc1=O)NC[C@@H]1CCCN2CCCC[C@H]12`, the “% Inhibition” value falls from 30% to -8%.

Going from `O=C(c1cc(-c2ccoc2)n[nH]1)N1CCC[C@H](N2CCOCC2)CC1` to `CCOCCOc1ccc(-c2nc(=O)c(CCC(=O)N3CCOCC3)n[nH]2)cc1`, the “% Inhibition” value rises from -10% to 3%.

Going from `O=C(Nc1nc(-c2ccccn2)cs1)c1ccc2ccccc2n1` to `Cc1ccc(-c2nc(CC(=O)N(c3ccc(N(C)C)cc3)[C@@H](C)c3ccccn3)cs2)o1`, the “% Inhibition” value rises from -3% to 5%.

Compared with `Cc1cc(CN(C)c2cc(NCC3CC3)ncn2)no1`, `CCc1nc(N(C)C[C@H]2CC(=O)N(C(C)(C)C)C2)no1` is higher in “% Inhibition” value: -10% for the first, -5% for the second.

Going from `CCN(CC)C(=O)CN1C(=O)C2(OCC(C)(c3ccccc3)CO2)c2ccccc21` (centres undefined) to `O=C1C2C(C(=O)N1c1cccc3ccccc13)C1(Br)c3ccccc3C2(Br)c2ccccc21` (centres undefined), the “% Inhibition” value rises from -9% to 5%.

First: COc1ccc(-c2nn3c(nc2=O)-c2ccccc2NC32CC3CCC2C3)cc1 (centres undefined)
Second: COc1cc(OC)cc(C(=O)N2C[C@@H]3CC[C@H]2CN(Cc2ccccn2)C3)c1
The “% Inhibition” value of the first is higher: 3% for the first, -8% for the second.

Going from `C[C@@H](Cc1ccsc1)N(C)S(=O)(=O)c1cnn(C)c1` to `CC[C@@](C)(C#N)NC(=O)c1cccc(S(C)(=O)=O)c1`, the “% Inhibition” value falls from 4% to -2%.

First: Cc1n[nH]c2c1CN(CC(=O)N1C[C@@H](C)O[C@@H](C)C1)CC2
Second: Cc1ccc(C(=O)N2CCC3(CCN(C)C3=O)CC2)cc1Cl
The “% Inhibition” value of the first is higher: 0% for the first, -8% for the second.

Going from `C[C@H](O)c1cn(CC(=O)NCC2CCC(C(C)(C)C)CC2)nn1` (some centres undefined) to `CCn1ccc(C(=O)N2CC[C@H](n3cc(COCc4ccccc4)nn3)C2)n1`, the “% Inhibition” value falls from -2% to -16%.

Going from `O=C1C2ON(c3ccccc3)C(c3ccccc3F)C2C(=O)N1c1cccc(-c2ccccc2)c1` (centres undefined) to `COc1ccc(OC)c(CNC(=O)c2ccc(C)c(-n3nnc4cccnc43)c2)c1`, the “% Inhibition” value falls from 7% to -10%.

Compared with `CCCCN(CC(F)(F)F)C(=O)c1cccc(N)c1`, `CCCC(=O)N1CCN(Cc2ccc(F)c(Cl)c2)[C@@H]2CS(=O)(=O)C[C@@H]21` is lower in “% Inhibition” value: -1% for the first, -19% for the second.

First: Cc1ccc(-c2nc(-c3c(C)ncc4c3CCNC4)no2)cn1
Second: CC1(S(=O)(=O)N2CC(c3ncc(C4CC4)cn3)C2)CC1
The “% Inhibition” value of the first is lower: -5% for the first, 7% for the second.

Going from `N#Cc1ncn(Cc2sc3ccccc3c2Cl)n1` to `O=C(COc1ccc2ccccc2c1)N1C[C@@H](CN2CCCCC2)[C@@H](CO)C1`, the “% Inhibition” value falls from 4% to -4%.

Going from `CN1CCCOc2cccc(c2)[C@@H]2N(C(=O)CCn3cncn3)CC[C@]23C(=O)N(CC1=O)c1ccccc13` to `COc1ccc(CN2CCc3c(c(=O)n4ncc(C(=O)N5CCOCC5)c4n3C)C2)cc1`, the Z score falls from 1.97 to 1.35.

Compared with `CCn1c(C2CCN(C(=O)Nc3ccccc3Cl)CC2)nn(CCOC)c1=O`, `Cc1ccc(F)cc1NC(=O)Cn1nc(N2CCC(C)CC2)c2ccccc2c1=O` is higher in Z score: -1.57 for the first, -0.29 for the second.

Going from `CCCc1cnc(NCCn2cnc(C)c2C)nc1` to `CCOc1ncccc1CNC(=O)c1scnc1C`, the Z score rises from 1.07 to 1.47.

First: NC(=O)CN1CCN(Cc2nc(-c3cccs3)no2)CC1
Second: C/C=C\Cn1c(C(=O)N2CCN(Cc3ccccc3)CC2)cc2c(OCC)cccc21
The Z score of the first is higher: 2.78 for the first, 0.71 for the second.

Going from `COc1cccc2c(=O)n([C@H]3CCCC[C@@H]3O)cnc12` to `O=C(NCCc1ccccc1F)c1cn(C2CCCCC2)nn1`, the Z score rises from -1.2 to 0.49.

Compared with `Cc1nc(NCCc2ccccc2F)cc([C@H]2C[C@@H](N)C2)n1`, `CCn1nccc1-c1nc(C)cc(C2CCC2)n1` is higher in Z score: -0.58 for the first, 0.42 for the second.

Compared with `CN(CC1CCCCC1)C(=O)COc1ccc(C#N)c(F)c1`, `CN(C(=O)C[C@H]1CCCOC1)c1ccc(Br)cc1Cl` is lower in Z score: 3.54 for the first, -0.27 for the second.

First: C[C@]1(CO)CCCN(c2nc(-c3ccccc3)nc3c2CCNCC3)C1
Second: O=C1NCCN2CCN(Cc3cnc4c(-c5ccccc5)cnn4c3)C[C@@H]12
The Z score of the first is higher: 1.98 for the first, 0.59 for the second.

Going from `CCCN(CCC)Cc1ccc(C(=O)N2CC=CC2)cc1` to `CCCCCOCC(=O)N1CC[C@H](c2ccc3cccnc3n2)C1`, the Z score rises from -0.46 to -0.05.

First: O=c1[nH]nc(-c2ccccc2)cc1Cc1ccc2c(c1)OCO2
Second: O=C(Nc1ccc2c(c1)OCO2)C1CCN(C(=O)C2c3ccccc3Oc3ccccc32)CC1
The Z score of the first is higher: 2.35 for the first, 0.67 for the second.

Going from `O=C(NC1CCCc2c(O)cccc21)C1COCCN1CC(F)F` (centres undefined) to `O=C(NC1(C(=O)O)CCC1)c1ccc(CN2CCc3ccccc3C2)o1`, the Z score falls from 2.79 to 1.1.

First: O=C(c1nnn2c1c(=O)[nH]c1cc(F)ccc12)N1CCN(c2ccc(F)cc2)CC1
Second: O=C(NCc1ccc(F)c(Cl)c1)C1CCN(c2cnc3nccnc3c2)CC1
The Z score of the first is higher: -1.27 for the first, -1.64 for the second.

Compared with `CCc1nn(C)cc1CNC(=O)[C@@](O)(CC)c1cccc(Cl)c1`, `O=C(O)[C@H]1CCN(C(=O)NCCOCc2ccc(Cl)cc2Cl)C1` is higher in Z score: 1.3 for the first, 2.03 for the second.

Compared with `O=C(c1ccccc1)c1ccc2n1CC[C@H]2C(=O)N1CCC(N2CCCCC2)CC1`, `O=C(Cn1cc(-c2ccccc2)ncc1=O)NC[C@@H]1CCCN2CCCC[C@H]12` is higher in Z score: -3.4 for the first, 0.97 for the second.

Compared with `O=C(c1cc(-c2ccoc2)n[nH]1)N1CCC[C@H](N2CCOCC2)CC1`, `CCOCCOc1ccc(-c2nc(=O)c(CCC(=O)N3CCOCC3)n[nH]2)cc1` is lower in Z score: 1.41 for the first, -0.37 for the second.

First: O=C(Nc1nc(-c2ccccn2)cs1)c1ccc2ccccc2n1
Second: Cc1ccc(-c2nc(CC(=O)N(c3ccc(N(C)C)cc3)[C@@H](C)c3ccccn3)cs2)o1
The Z score of the first is higher: 0.44 for the first, -0.64 for the second.

Compared with `Cc1cc(CN(C)c2cc(NCC3CC3)ncn2)no1`, `CCc1nc(N(C)C[C@H]2CC(=O)N(C(C)(C)C)C2)no1` is lower in Z score: 1.5 for the first, 0.8 for the second.

Going from `CCN(CC)C(=O)CN1C(=O)C2(OCC(C)(c3ccccc3)CO2)c2ccccc21` (centres undefined) to `O=C1C2C(C(=O)N1c1cccc3ccccc13)C1(Br)c3ccccc3C2(Br)c2ccccc21` (centres undefined), the Z score falls from 1.04 to -0.78.

Compared with `COc1ccc(-c2nn3c(nc2=O)-c2ccccc2NC32CC3CCC2C3)cc1` (centres undefined), `COc1cc(OC)cc(C(=O)N2C[C@@H]3CC[C@H]2CN(Cc2ccccn2)C3)c1` is higher in Z score: -0.26 for the first, 1.29 for the second.

First: C[C@@H](Cc1ccsc1)N(C)S(=O)(=O)c1cnn(C)c1
Second: CC[C@@](C)(C#N)NC(=O)c1cccc(S(C)(=O)=O)c1
The Z score of the first is lower: -0.42 for the first, 0.32 for the second.

Compared with `Cc1n[nH]c2c1CN(CC(=O)N1C[C@@H](C)O[C@@H](C)C1)CC2`, `Cc1ccc(C(=O)N2CCC3(CCN(C)C3=O)CC2)cc1Cl` is higher in Z score: 0.02 for the first, 1.36 for the second.

Compared with `C[C@H](O)c1cn(CC(=O)NCC2CCC(C(C)(C)C)CC2)nn1` (some centres undefined), `CCn1ccc(C(=O)N2CC[C@H](n3cc(COCc4ccccc4)nn3)C2)n1` is higher in Z score: 0.21 for the first, 2.37 for the second.

First: O=C1C2ON(c3ccccc3)C(c3ccccc3F)C2C(=O)N1c1cccc(-c2ccccc2)c1 (centres undefined)
Second: COc1ccc(OC)c(CNC(=O)c2ccc(C)c(-n3nnc4cccnc43)c2)c1
The Z score of the first is lower: -0.91 for the first, 2.04 for the second.

First: CCCCN(CC(F)(F)F)C(=O)c1cccc(N)c1
Second: CCCC(=O)N1CCN(Cc2ccc(F)c(Cl)c2)[C@@H]2CS(=O)(=O)C[C@@H]21
The Z score of the first is lower: 0.19 for the first, 2.11 for the second.

Compared with `Cc1ccc(-c2nc(-c3c(C)ncc4c3CCNC4)no2)cn1`, `CC1(S(=O)(=O)N2CC(c3ncc(C4CC4)cn3)C2)CC1` is lower in Z score: 0.41 for the first, -1.18 for the second.

First: N#Cc1ncn(Cc2sc3ccccc3c2Cl)n1
Second: O=C(COc1ccc2ccccc2c1)N1C[C@@H](CN2CCCCC2)[C@@H](CO)C1
The Z score of the first is lower: -0.41 for the first, 0.79 for the second.
